Test results taken from PubChem BioAssay AID1347044 (National Center for Advancing Translational Sciences (NCATS), 2019).
The other results are listed elsewhere or left out. Further columns of the screen follow, without active or inactive calls. Compounds called inactive in the main read-out are mostly missing here. Words in brackets tell the shape of the fitted curve; partial curves, single points and poor fits give uncertain potencies.

Assay: Natriuretic polypeptide receptor (hNpr1) antagonism - Confirmation; note: nearly all actives have a fitted effect of over 70% in size
Conditions: HEK293 hNpr1 cGMP GloSensor luminescence, ANP-stimulated; measured here: HEK-hNpr1 cytotoxicity, CellTiter-Glo
Procedure, shortened: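 HEK293 cells co-expressing hNpr1 and GloSensor cGMP sensor preloaded 2 h with 2% GloSensor reagent, compounds added 30 min at room temperature, then 0.1 nM hNppA for 20 min; luminescence read before and after agonist. Cytotoxicity counter-screen run.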
Tags give direction and shape of the fitted curve.

Row | Compound | CC50
1 | COc1ccc(-n2nc3n(c2=O)CCN(Cc2cccn2C)C3)cc1 | 53.9 µM [falling, single point]
2 | Cc1nccc(N2CCC(Oc3cnc4c(ccn4CCN[S+](C)(=O)[O-])c3)CC2)n1 | 28 µM [falling, partial curve]
3 | COc1ccc(-c2noc(CC3CCN(C(=O)Cc4ccc(OC)c(Cl)c4)CC3)n2)cc1 | 21.7 µM [falling, partial curve]
4 | c1ccc(CCCN[C@H]2CO[C@H]3[C@@H]2OC[C@@H]3n2cc(-c3ccccc3)nn2)cc1 | 17.7 µM [falling, partial curve]
5 | O=C(NCCc1cccc(Oc2ccccc2)c1)[C@H]1CCC[C@H](O)C1 | 24.3 µM [falling, partial curve]
6 | COc1c[nH]c(CN2CCCC(Nc3ccc(C(C)C)cc3)C2)cc1=O (centres undefined) | 21.7 µM [falling, partial curve]
7 | CC(C)c1nncn1C1CCN(S(=O)(=O)c2cccc(Cl)c2)CC1 | 43.2 µM [falling, single point]
8 | O=C(Cc1c[nH]c2ncc(-c3ccccc3C(F)(F)F)cc12)NCc1cccnc1 | 31.4 µM [falling, partial curve]
9 | O=C(Nc1ccc(Cl)cc1)c1nc2c(o1)CCN(Cc1ccc(F)cc1F)CC2 | 28 µM [falling, partial curve]
10 | CCS(=O)(=O)c1ccc2oc([C@H]3CCN(Cc4cccc(Cl)c4)C3)nc2c1 | 39.6 µM [falling, partial curve]
11 | O=C(N[C@H]1CO[C@H]2[C@@H]1OC[C@@H]2n1nnnc1Oc1ccccc1)c1ccc(C(F)(F)F)cc1 | 10.9 µM [falling, partial curve]
12 | Cc1ccc(C(=O)N2CCN(C(=O)c3nnn4c3COC(c3ccc(F)cc3)C4)CC2)cc1C (centres undefined) | 24.3 µM [falling, partial curve]
13 | O=C(CCC1CCCC1)N1CCC2(CC1)CC(N(C(=O)c1ccccc1)C1CC1)CCO2 (centres undefined) | 30.6 µM [falling, single point]
14 | CC1=NS(=O)(=O)N(C)C=C1C(=O)OCc1nc(-c2ccc(C)cc2)no1 | 21.7 µM [falling, partial curve]
15 | COc1ccc(C2(C(=O)N3CCC[C@H]3c3nc(-c4ccccc4Cl)no3)CC2)cc1 | 21.7 µM [falling, partial curve]
16 | Cc1ccccc1-c1cnc2[nH]cc(CC(=O)NC3CC3)c2c1 | 31.4 µM [falling, partial curve]
17 | O=C1c2ccccc2CN1C1CCN(Cc2ccc(C(F)(F)F)cc2)CC1 | 21.7 µM [falling, partial curve]
18 | O=C(CN1CCCc2nc(-c3ccccc3)ncc2C1=O)NCCc1c[nH]c2ccccc12 | 24.3 µM [falling, partial curve]
19 | O=C(Nc1ccc(Oc2ccccc2)cc1)O[C@@H]1CO[C@H]2[C@@H]1OC[C@@H]2n1nnnc1SC1CCCC1 | 13.7 µM [falling, partial curve]
20 | CCc1cnc(C)nc1N1CCOC(c2ccc(Cl)cc2)C1 (centres undefined) | 19.3 µM [falling, partial curve]

Row | Compound | CC50
21 | Clc1ccc(C2CN(c3cc(C4CC4)ncn3)CCO2)cc1 (centres undefined) | 21.7 µM [falling, partial curve]
22 | O=C(c1nnn2c1COC(c1ccc(Cl)cc1)C2)N1CCN(C(=O)c2c(F)cccc2F)CC1 (centres undefined) | 5.44 µM [falling, full curve]
23 | COc1ccc(-c2cc(C[C@@H]3C[C@H](NCc4ccncc4)C3(C)C)no2)cc1 | 25 µM [falling, partial curve]
24 | COCc1nc(-c2ccc(OC3CN(S(=O)(=O)c4ccccc4C)C3)cc2)no1 | 21.7 µM [falling, partial curve]
25 | COc1ccc2oc(CNC(=O)c3cc(CC(C)C)nn3C)nc2c1 | 17.2 µM [falling, partial curve]
26 | Cc1nn2c(c1-c1ccccc1Oc1ccccc1)N(CC1CC1)CCC2 | 35.3 µM [falling, partial curve]
27 | Cc1ccc(C(=O)N2CCN(c3cc(-c4ccc(Cl)cc4)[nH]n3)CC2)c(C)c1 | 4.32 µM [falling, full curve]
28 | COc1ccc(C(=O)N2CCN(C(=O)c3nnn4c3COC(c3ccc(Cl)cc3)C4)CC2)c(C)c1 (centres undefined) | 17.2 µM [falling, partial curve]
29 | COc1ccc(C2Cn3nnc(C(=O)N4CCN(C(=O)Cc5ccc(F)cc5)CC4)c3CO2)cc1 (centres undefined) | 21.7 µM [falling, partial curve, poor fit]
30 | COc1ccc(N2CCN(c3nc(C(=O)NCc4ccc(C)cc4)cs3)CC2)cc1 | 15.3 µM [falling, partial curve]
31 | O=C(c1cc(F)ccc1Cl)N1CCC(Cc2nc(-c3ccccc3)no2)CC1 | 17.2 µM [falling, partial curve]
32 | COc1ccc(OC)c(S(=O)(=O)N[C@H]2CO[C@H]3[C@@H]2OC[C@H]3OC(=O)Nc2ccc(Oc3ccccc3)cc2)c1 | 17.2 µM [falling, partial curve]
33 | O=C(c1cc(F)ccc1F)N1CCN(c2cc(-c3ccc(Cl)cc3)[nH]n2)CC1 | 24.3 µM [falling, partial curve]
34 | CN(C/C=C/c1ccccc1)c1cc(C2CC(O)C2)nc(N)n1 (centres undefined) | 19.3 µM [falling, partial curve]
35 | CC(C)Oc1ccc(CNC(=O)c2cc3n(n2)CC(c2ccc(Cl)cc2)OC3)cc1 (centres undefined) | 24.3 µM [falling, partial curve, poor fit]
36 | O=C(NC1CCCCCC1)c1csc(N2CCN(c3ccccc3)CC2)n1 | 43.2 µM [falling, single point]
37 | CC(=O)c1ccc(N2CCN(C(=O)c3cc4n(n3)CC(c3ccc(Cl)cc3)OC4)CC2)cc1 (centres undefined) | 21.7 µM [falling, partial curve]
38 | COc1ccc(N2CCN(c3nc(C(=O)NCc4ccc(C)c(C)c4)cs3)CC2)cc1 | 15.3 µM [falling, partial curve]
39 | Cc1c(CN(C)c2cc(C3CC(O)C3)nc(N)n2)[nH]c2ccccc12 (centres undefined) | 1.09 µM [falling, full curve]
